# Measured values published in article PMC10726135.
# The other results are listed elsewhere or left out. At the low end of the ranking, values are background and their order means little. The protein was read in a cell extract, so binding may be indirect.
# Biological target: T1, HNF4alpha8 (COS-7 nuclear extract) (UniProt P41235-5)
# T1 sequence: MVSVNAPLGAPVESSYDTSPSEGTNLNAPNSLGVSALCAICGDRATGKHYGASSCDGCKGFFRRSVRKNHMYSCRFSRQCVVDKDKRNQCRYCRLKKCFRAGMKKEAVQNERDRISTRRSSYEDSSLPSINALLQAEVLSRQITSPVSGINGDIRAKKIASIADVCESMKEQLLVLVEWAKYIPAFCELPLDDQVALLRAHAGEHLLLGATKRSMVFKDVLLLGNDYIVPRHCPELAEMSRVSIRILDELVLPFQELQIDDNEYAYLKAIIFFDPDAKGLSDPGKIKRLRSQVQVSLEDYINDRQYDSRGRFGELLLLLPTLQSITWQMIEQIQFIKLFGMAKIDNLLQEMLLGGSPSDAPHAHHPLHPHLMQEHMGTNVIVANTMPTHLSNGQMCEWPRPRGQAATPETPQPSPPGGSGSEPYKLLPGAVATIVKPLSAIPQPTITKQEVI
# Test: protein-binding microarray
# Settings: COS-7 nuclear extract on double-stranded Agilent 4x180k PBM; binding buffer, salt, pH and temperature not given; high values mean tight binding; double strand, one strand shown; sequences stand for … in …GCCTAGGGAGATTAGAGTATCGGTCGA
row,Sequence,binding signal (log2 normalized intensity)
1,CATGCTCCCCACCCCCAACTTCCCCAACCC,6.6
2,GATCCACGGAGAATGTAGACCTTTACCACC,2.35
3,GCAGAGTGTCCCATATCACATTTTAAGGTC,2.25
4,TTCTTTTAGTGTGCTCTGGGTCTGTCCTTT,3.03
5,GGCCTTTGGACCCAGACTGAATCACACTAC,4.85
6,CCCCTACACAGAGGAGCGACCCAGGCAGCC,-1.32
7,TACTGAGAGGCCAGCTAAAACTGCAGATTG,-1.29
8,GGGTGGGGTTGGAGTCCAGAGTTCAGGTAG,3.51
9,AACTGTACTTTGGACTGGGGACCTGGTCTG,4.79
10,GCATATCTAGAGTCTGACTACTTCTCACCA,-1.19
11,AAACTCTGAAAGCACTAAGTTACCTCATCT,-1.25
12,AGTTCAGTCTTTATTGGTACGTTCCAATAT,1.8
13,TTGGGTGAGTGTTAGAGCACCCTCTGGAGG,-1.37
14,AAGTGCATACTCAAAGAATTTAACACCAGA,-1.3
15,CTTTGACCTTACCAGCCCACTCTTAGCAGA,-1.38
16,GAGCTGTGATTGCGCCACTGTACTCCTGTC,0.907
17,CAGTCCCTGTACACGGTTCTTGACCTGTGA,4.12
18,AGCGGCAGCGCCTCCCGGTCACTACAACAA,-1.41
19,GGCCTGCAAGCTCCTGGTTGGGGCCTCCCT,-1.36
20,GGGCTTAATCTTTCCTGCCTGCCGGCTCTG,-1.28
21,TCCCACCGTGTGTGCACTTTAAATTAATCT,0.44
22,TGTTTGCACTGAGGAATGGAAGGACCTTGG,2.07
23,TTTGCCCTTTGAGCTTCTGTCTTGGACTGC,3.91
24,ATATGAAAACAAAGGAAACCAAACATTGAA,-1.31
25,CAAATAAAGTTTGAGGAGAGTCAAAGGTTA,4.23

row,Sequence,binding signal (log2 normalized intensity)
1,CCACACAAACCCAGTTTGCATTTTCATGGA,0.254
2,TTGCAGACTGGTTCTTGGTCAGCTCCTGGG,-1.09
3,CAAGAAACCTTTCCCTCTCTCCTGGTTTGG,1.23
4,AGTTTTTCCCCTTGGTGGATTCCGTGGTAA,1.43
5,TGCGCATGTTCCCACGAAACCCTAAACCTG,-1.19
6,GCAGGCCTGGGGGCAAAGTCAGGTACTGGT,1.16
7,TTCCCTCCTGTGAACTCGCGCCCCAACGGA,-1.25
8,ACCTTTAGCACCGTAAGAGAGTATTTCCCA,-0.964
9,CACTTCGCATTTCCAAAAGAAGAATGTGGC,-0.294
10,GAAGAGTGAGGTCACAGTATTCATTCCCCT,1.55
11,TTCTTATCTTTCTCAAGAGCAGAATCTACA,0.247
12,TGACGCTTTAAGTAGGCACTATTATCCCCC,3.62
13,TGCTCTTATTGATTGCCTTTCATGTACTGT,2.2
14,TAATGAATAAGCACGTTAGAGAAAAAGCCC,-1.39
15,TCCTGCCCCCTGGAGGAGTGAGGGATGTTC,1.96
16,GTCAGGACAAGGCTCTGGTGGGGAATGCTA,-1.31
17,GGAGACCACTGGTGTAAGCTCTGGAGTCCA,1.64
18,CCAGGATCAAATACAGAATCAATGCCTGAT,-1.34
19,GTGGCCCCGAGATAAGGATTCCTGGAATGT,0.921
20,CAGCCTTTGGACTTTGAACTGCAACATCAG,8.89
21,GGAGAATTTCACAAAGGGCAAAGTCCCCTT,7
22,TTACGGGCAGAGCTGGGGTGCCTGATAATG,-1.25
23,CAGGCACATTCCAGGACCTTTGCTCATGTC,3.58
24,ACCAAGGAGGTGCTGACAGGCCCTCTGATA,-1.27
25,TGTCCCTCCTGACCTTTGGACTTGATAGAG,9.7

row,Sequence,binding signal (log2 normalized intensity)
1,ACAGCCACATGCTAACACACCTGGCTATTC,-1.4
2,TGTCATGACCTTCGCTCTTGATGGGTTTGC,3.64
3,CCGTCTCTCACCAAATCCCTGCCCACATCC,2.23
4,GGTGTGAATATTTAAGATTCCAGCTCTCGG,-1.27
5,GACCCTTGCACTCATACTTGAAGACATTCC,3.49
6,TGAAGCTTGCAACAAAGGGGTTTCTAAGAA,-1.19
7,ATGTTTGGGAGCCTTGCACACTCGCCTGGC,-1.42
8,CATCTTTATCATGTGGTATTAACATGTAAA,1.4
9,ACTCCACATATTGTAGATAATACTGTGTCA,0.935
10,TTCAGTCGGCTCTCAGCGGAACTTTCCTCT,-1.4
11,TTGGGTGGAGGGGAGGTTATCTTGGGGCTG,-1.15
12,TTAACAGATGAGGACATTTCAGCAAAGTTC,0.0075
13,CAGAGGTCAAGGCTGCAGCGAGCCACTGTA,-1.41
14,CCCCCATTAGAGGCACACTCTATTATGTAA,1.59
15,ATGCCCTTATCTCATACCTTGCATGCACAA,0.04
16,AGTTTGAAGCTTAGAGAGAGAAATTGCTTA,-1.35
17,TTGACTTTTTGTGGGGGCAGATGTTTCTTT,1.95
18,TTGAATCCTTATCTGTAGAAGGCAAAGCTT,-1.04
19,CATGTGGGTCAACAGACAAATGAAAGAGCT,-1.07
20,GGTTGCCCAGGGAGAGCTGGACTTTCATCT,5.54
21,TGCTAACAATGTGATTTATGAAGGGGGGTG,-1.3
22,GAAGGCCCTGAACTCCCAGCCTCCAAGATG,-1.25
23,TCCTCTCAAAGTCCACCCGGCCAGCAGATG,3.12
24,CTCCTCCCCTTGAGACTTTAATCTCTCCTC,2.01
25,TCTCTGTAAACTGGCCAGAAGGTCAGAGAT,2.36

row,Sequence,binding signal (log2 normalized intensity)
1,TACTAGCCATTTCGGCACCTTCTACACAGC,-0.851
2,TACAGACAGAAGCCAGAGGCAGCAAGGTCA,0.321
3,TGCCCTTTGGCCCCCAGAGCCCCGTGTCTC,5.63
4,ATTCTCTGGAAAAGGTCTGCTGTACATATT,1.35
5,GAAGAAGTGTTAAGGACAACCGGTAGCACA,-1.33
6,TGGGAAGTCCAAAGTCTGCAGGGTAGGCAG,3.24
7,GCCATCCAGGGCATTGCCGTTCAGGGCCAC,-1.26
8,GCCTGACTCCCTGACGCCATCTGGCGTCCC,-1.24
9,GAATGCACCCTTTTGACCACACAGCAAGGC,0.472
10,CCTTTGGAGGGGAAGCTGGGCAGGCGCCGA,-1.35
11,GGATTAACCACAGAAATGCCGCTAATGTAT,-1.38
12,AGGAAGGACATGGTAAAGATGACCAGCGTG,-1.08
13,TCCTAATGCCCAAATGAATAATCCCCTCCT,3.71
14,ACAACTTTCATTGAACTGCTGGGGGTAAAG,0.684
15,CTTTAAACATTCTTCTCAGTGTTTTGGGTC,1.98
16,CTCTAAGCACGGCCAGGATTAACCACAGAA,-1.3
17,AACCTTCATCTCTCTTTGTTGACATCTGCT,-0.0144
18,GTGTGACCTTTGCCTTCTTGACATCTCTCT,5.21
19,AACCTTTGCTCCCTGGGAACCCCTCCAGCA,4.73
20,GTCAGACTTGCCACGGAATCCCAGTTCTGA,-1.32
21,GTGGGCAAGTTATCTCGGGGTGGCATGTAT,1.04
22,AAACTACTTTATATTCCTTTGTATCTGTAC,1.41
23,AGTGATATGGAGAGGAAAGATGGGGATATA,-1.39
24,CAACCTCCACATTGCAACAATGTCCTTGAA,0.277
25,TTCTTATTCTGTCACCAAAGCAAGCAGATG,-1.28

row,Sequence,binding signal (log2 normalized intensity)
1,GTTATCTGCATTCCAGCTCAATCAAGGACT,-1.27
2,TTGCACCAAGGAGACACCCCTGCAGAAGCG,-1.32
3,ATCTCTGGCAAAGCTATTCACTTTTTGGCC,0.906
4,TTAATTTCTAACCAATGCAGCTGGGAGATA,-0.517
5,ATTAAGTGCAGTGATCAATCAGCAGCAAAG,-1.07
6,CCTCCAGCTACTCACTCTTCCCAAATAGGT,-0.273
7,GTCTTTTCTCCCCCGATAAGGCTGCCTCCT,3.7
8,TACACTTGGAGAAAAAAAACCATTGCAAAT,-1.33
9,ATTGAGGCAGCCAGCGCAGGGGCTTCTGCT,-1.21
10,CAACCTTATCAGCAGGACACCAAACAGACC,-1.29
11,TGAGTAGTGTACGTTGTACCCCACAGGTAT,3.39
12,TGCAGAGTCACACACACCTGTGTCCCCCAG,3.39
13,GGATAGCGCGTGGCCCAAGGCCTCTGACAT,-1.16
14,TGCCTCTTTTCTGCTTTTGGAATTTGACCT,8.78
15,GGGCTGGAACACAAAGAAAGCCAAAGTTCA,2.9
16,CCCACACCTCCCCTTTGTTTAACTTACTAT,1.43
17,GTGACATACTGCCTTTCTAGAACCAGAATT,-1.36
18,GGTGGGAAAAGAAATGTAGTGACAGAAGGG,-1.29
19,ACAGTGCCTATGTTGGAATGCCTAAAGTAG,-1.15
20,GTCGCTGTGATGTTTGTAAACTGTCATGGT,1.54
21,TTCTGGGGACTTCGGTCTTTTTTCTGAAGA,1.28
22,GATGTTCGTTTGGATCGCTTGGCTCAGGCC,-1.32
23,CTGTTTGAGGGTAAAGATCTTGAGGCCCAC,-0.0412
24,GGGGAGAGTTTAAGGTTGTACTTTGGAGTT,5.33
25,TGATAAACACTTGCCTACTTTATGGTAAAC,-1.18

row,Sequence,binding signal (log2 normalized intensity)
1,TAATTAAGACCAAACTGCTGAAGATAAGAC,-1.35
2,GGAAGGAAAAGAGGAAAACCAGCTCAGTGG,-1.38
3,GGAGCAGAGCGATCAAAGGTCACAGAGACC,6.2
4,GAATGCCTAAAGTAGGTCTTAAATAATTAA,-1.2
5,CAAATACCTCCAAGAGGTTTTAGGCTATCA,-1.33
6,TGTTTGCGCAAACTATCTAAACAGACTAGT,-1.09
7,ATACATTTGCCTGAACTTTAAACTGGTGTG,3.38
8,CTGCCCTTTGGAACCTGCCCTCTGTCCCAT,4.63
9,ACAAAGATCATAAATGCCTCCCCCTCTTTA,3.85
10,TGGGAACCCCAAGTTATCTTGAGACCTCAA,0.616
11,TGGGCTGGGACTCATTTATGGAGGAATTTG,0.0801
12,AGATACTGAATCTCCCAGTGCTTTGATCTT,1.39
13,CAGATCCAGTGGACTCTCTGTTTGATCAGC,2.28
14,TAAGACAGACCCAAAGGTTAAGGAAACAAG,-1.2
15,AAGTCCATCTGTATTGCCTCCTTTGTAGGC,1.7
16,AACATATACTTTATTAGGGTGAAAAATTAG,-0.0218
17,TTTTGTACTTCCTTCACTCTGGGGCAATAA,1.53
18,TTGATGAGTCTTAGAGTCCAGACACAAAGA,0.55
19,ATTAACCTTTGTACCAAAATCACACTGGGA,3.75
20,ATTCCTCTATCTCCCTGTGACCTCCAACTA,3.13
